Assay [1] deals with Junin virus. The assay is classed as cell-based. To be noted: Vero cells, listed as N4-Hydroxycytidine.
The subject of assay [2] is VEEV. Type of assay: cell-based, Venezuelan equine encephalitis virus. The note with it: Vero76 cells, listed as N4-Hydroxycytidine.
Assay [3] relates to WEEV. The assay is classed as cell-based, Western equine encephalitis virus. The note with it: Vero76 cells, listed as N4-Hydroxycytidine.

Take `O=c1nc(NO)ccn1C1OC(CO)C(O)C1O` (stereo not drawn) [EIDD-1931, 1-(3,4-dihydroxy-5-(hydroxymethyl)tetrahydrofuran-2-yl)-4-(hydroxyamino)pyrimidin-2-one]: the EC50 in assay [1] amounted to 20800 nM; in assay [2], 1920 nM; in assay [3], 760 nM.

In general, EC50 refers to the concentration that produces a half-maximal response.

Values taken from US11903959B2 (EMORY UNIVERSITY, priority 2017, dated 2024).
